The inconclusive results got no clear call from the source; some entries with a clear call stand among them for comparison. For some of these results: Potencies beside an inconclusive call are fits to weak or partial responses and may not hold up. Active and inactive are the calls of the source. Calls come from the whole dose curve; as a rule, active = well fitted curve in the direction sought with a large enough effect; inconclusive = small, poorly fitted or top-dose-only effect, or another doubt; inactive = no such curve, though single readings can be large; an effect the other way counts as inactive or inconclusive. Square brackets hold non-standard residues; d marks the D form. Peptide text beside a SMILES is read from it. ξ: configuration not given here. ξLac(3-iPr) = CC(C)CC(O)C(=O)O; NMeV = CN[CH](C(=O)O)C(C)C; βAla = NCCC(=O)O
Tests used:
[1] = P-glycoprotein substrates identified in KB-8-5-11 adenocarcinoma cell line, qHTS therapeutic library screen (AID 1346987); note: nearly all actives have a fitted effect of over 65% in size
Procedure, shortened: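 KB-8-5-11, a colchicine-selected P-gp-overexpressing KB-3-1 subline, was grown without colchicine for the assay. Cells were seeded at 500 cells/well, dosed in concentration-response and incubated 72 h at 37 degree C, 5% CO2. Viability was read by CellTiter-Glo luminescence.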

[2] = system: Zika virus NS2B-NS3 protease (unlinked complex); assay: Primary screen GU Rhodamine qHTS for Zika virus inhibitors: Unlinked NS2B-NS3 protease assay (AID 1347159); note: nearly all actives have a fitted effect of over 60% in size
Procedure, shortened: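 Compounds, tested up to 114 microM, were incubated for 15 minutes with 25 nM unlinked NS2B-NS3 protease at pH 8.0. Cleavage of 1.5 microM Rhodamine110 substrate was then followed by fluorescence for 15 minutes.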

HEK293 = assay: Cytotoxic Profiling of Annotated Libraries Using Quantitative High-Throughput Screening (AID 1296008); details: Five cell lines viability, CellTiter-Glo ATP luminescence, 48-72 h; max response: hits give low values; note: nearly all actives have a fitted effect of over 60% in size; for max response: % is set by controls: 0 for no effect and ±100 for the full control effect
Procedure, shortened: (§1)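 Cytotoxicity was measured as CellTiter-Glo ATP luminescence, read after 10 min at room temperature. Compound treatment of the cells lasted 48 or 72 hr at 37 degrees Celsius in a qHTS format.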

HaCat = assay: as above; details: Five cell lines viability, CellTiter-Glo ATP luminescence, 48-72 h; max response: hits give low values
Procedure, shortened: as §1

KB-3-1 = assay: as above; details: Five cell lines viability, CellTiter-Glo ATP luminescence, 48-72 h; max response: hits give low values
Procedure, shortened: as §1

[3] = Primary qHTS for inhibitors of nuclear receptor binding SET domain protein 2 (NSD2) in an RCH-ACV wild type WT cells (2C) (AID 1645877); details: activity change, negative = cell killing: at 44.9 µM (top of the series); note: nearly all actives have a fitted effect of over 70% in size
C33A = assay: Primary qHTS to identify gynecologic anti-cancer compounds using libraries of approved drugs and bioactive compounds (AID 1345084); details: Gynecologic cancer cell panel viability, ATPlite luminescence, 48 h; series mostly up to 57.5 µM; note: nearly all actives have a fitted effect of over 55% in size; for activity change, negative = cytotoxicity: % is set by controls: 0 for no effect and ±100 for the full control effect
Procedure, shortened: (§2)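 Cells, 1,000 per well, plated 16 h, then exposed 48 h at 37 C to compounds. Viability by ATPlite luminescence after 15 min at room temperature.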

CAOV3 = assay: as above; details: Gynecologic cancer cell panel viability, ATPlite luminescence, 48 h; series mostly up to 57.5 µM
Procedure, shortened: as §2

Es-2 = assay: as above; details: Gynecologic cancer cell panel viability, ATPlite luminescence, 48 h; series mostly up to 57.5 µM
Procedure, shortened: as §2

OV90 = assay: as above; details: Gynecologic cancer cell panel viability, ATPlite luminescence, 48 h; series mostly up to 57.5 µM
Procedure, shortened: as §2

PA-1 = assay: as above; details: Gynecologic cancer cell panel viability, ATPlite luminescence, 48 h; series mostly up to 57.5 µM
Procedure, shortened: as §2

SKOV3 = assay: as above; details: Gynecologic cancer cell panel viability, ATPlite luminescence, 48 h; series mostly up to 57.5 µM
Procedure, shortened: as §2

Tov-21-G = assay: as above; details: Gynecologic cancer cell panel viability, ATPlite luminescence, 48 h; activity change, negative = cytotoxicity: at 57.5 µM (top of the series)
Procedure, shortened: as §2

Tov112D = assay: as above; details: Gynecologic cancer cell panel viability, ATPlite luminescence, 48 h; activity change, negative = cytotoxicity: at 57.5 µM (top of the series)
Procedure, shortened: as §2

[4] = Primary qHTS for inhibitors of nuclear receptor binding SET domain protein 2 (NSD2) in an isogenic RCH-ACV NSD2 p.E1099K mutant (9B) (AID 1645876); note: nearly all actives have a fitted effect of over 70% in size
CASKI = assay: Primary qHTS to identify gynecologic anti-cancer compounds using libraries of approved drugs and bioactive compounds (AID 1345084); details: Gynecologic cancer cell panel viability, ATPlite luminescence, 48 h; activity change, negative = cytotoxicity: at 57.5 µM (top of the series); note: nearly all actives have a fitted effect of over 55% in size; for activity change, negative = cytotoxicity: % is set by controls: 0 for no effect and ±100 for the full control effect
Procedure, shortened: as §2

Hek293T = assay: as above; details: Gynecologic cancer cell panel viability, ATPlite luminescence, 48 h, control line for the selectivity index; series mostly up to 57.5 µM
Procedure, shortened: as §2

NIH3T3 = assay: Cytotoxic Profiling of Annotated Libraries Using Quantitative High-Throughput Screening (AID 1296008); details: Five cell lines viability, CellTiter-Glo ATP luminescence, 48-72 h; max response: hits give low values; note: nearly all actives have a fitted effect of over 60% in size; for max response: % is set by controls: 0 for no effect and ±100 for the full control effect
Procedure, shortened: as §1

HeLa = assay: Primary qHTS to identify gynecologic anti-cancer compounds using libraries of approved drugs and bioactive compounds (AID 1345084); details: Gynecologic cancer cell panel viability, ATPlite luminescence, 48 h; series mostly up to 57.5 µM; note: nearly all actives have a fitted effect of over 55% in size
Procedure, shortened: as §2

JEG-3 = assay: as above; details: Gynecologic cancer cell panel viability, ATPlite luminescence, 48 h; series mostly up to 57.5 µM
Procedure, shortened: as §2
Potency is the fitted concentration of half-maximal effect; tags give direction and shape of the fitted curve.

CCC/C=C/C=C/C1CC(O)C2(O)C(=O)OCC12 (configuration not stated)
inactive: Potency [1] | outcome (HaCat) | max response (KB-3-1) 7.96%
inconclusive: Potency [2] 15.8 µM [inhibitor, full curve] | Potency (HEK293) 16.4 µM [inhibitor, single point]

CCCCCCCCn1cc(CN(CC)CC)c2cc(-c3cnc(N)nc3)ccc21
active: Potency [1] 18.4 µM | Potency [3] 3.25 µM | Potency (HEK293) 16.4 µM
inconclusive: Potency (HaCat) 29.1 µM [inhibitor, single point] | Potency (KB-3-1) 23.1 µM [inhibitor, single point] | Potency (C33A) 31.6 µM [cytotoxic, single point] | Potency (CAOV3) 39.8 µM [cytotoxic, single point] | Potency (Es-2) 25.1 µM [cytotoxic, single point] | Potency (OV90) 14.1 µM [cytotoxic, partial curve] | Potency (PA-1) 35.5 µM [cytotoxic, single point] | Potency (SKOV3) 35.5 µM [cytotoxic, single point] | Potency (Tov-21-G) 39.8 µM [cytotoxic, single point] | Potency (Tov112D) 39.8 µM [cytotoxic, single point]

COC(=O)N[C@H](C(=O)N1[C@@H]2CC[C@@H](C2)[C@H]1c1nc2ccc(-c3ccc4c(c3)C(F)(F)c3cc(-c5cnc([C@@H]6CCC7(CC7)N6C(=O)[C@@H](NC(=O)OC)C(C)C)[nH]5)ccc3-4)cc2[nH]1)C(C)C
inconclusive: Potency [1] 5.63 µM [inhibitor, partial curve] | Potency [4] 3.17 µM [inhibitor, partial curve] | Potency [3] 3.99 µM [inhibitor, partial curve]
inactive: max response (HaCat) -33.1% | max response (KB-3-1) -8.63% | Potency (CAOV3) | Potency (CASKI) | Potency (OV90) | Potency (Tov112D)
active: Potency (HEK293) 3.99 µM

NC(=O)N1CCC(CC(=O)N2CCC(C3c4ncc(Br)cc4CCc4cc(Cl)cc(Br)c43)CC2)CC1 (configuration not stated)
inconclusive: Potency [2] 56.2 µM [inhibitor, partial curve, poor fit] | Potency (HEK293) 7.31 µM [inhibitor, partial curve, poor fit] | Potency (HaCat) 23.1 µM [inhibitor, single point] | Potency (KB-3-1) 20.6 µM [inhibitor, single point] | Potency (Hek293T) 8.91 µM [cytotoxic, partial curve, poor fit] | Potency (OV90) 6.31 µM [cytotoxic, partial curve] | Potency (Tov112D) 7.94 µM [cytotoxic, full curve, poor fit]
active: Potency [1] 18.4 µM

CCC(=O)c1cc(-c2ccc(Cl)cc2)n(-c2ccc(S(N)(=O)=O)cc2)c1C
inconclusive: Potency [1] 10.3 µM [inhibitor, partial curve] | Potency (HEK293) 29.1 µM [inhibitor, single point] | Potency (HaCat) 25.9 µM [inhibitor, single point] | Potency (KB-3-1) 18.4 µM [inhibitor, single point] | Potency (SKOV3) 39.8 µM [rising, single point]

O=C(Nc1ccccc1)c1ccc(Nc2nnc(-c3ccc(O)cc3)c3ccccc23)cc1
inactive: max response (HaCat) -7.55% | Potency (C33A) | Potency (OV90) | Potency (Tov112D)
inconclusive: Potency [1] 29.1 µM [inhibitor, single point] | Potency [4] 29 µM [inhibitor, single point] | Potency [3] 29 µM [inhibitor, single point] | Potency (HEK293) 29.1 µM [inhibitor, single point] | Potency (KB-3-1) 25.9 µM [inhibitor, single point] | Potency (SKOV3) 31.6 µM [cytotoxic, single point]

CC/C(=C(\c1ccc(O)cc1)c1ccc(OCCNC)cc1)c1ccccc1
inactive: outcome (HaCat) | Potency (Tov112D)
inconclusive: Potency [1] 29.1 µM [inhibitor, single point] | Potency [4] 11.5 µM [inhibitor, partial curve, poor fit] | Potency [3] 16.3 µM [inhibitor, partial curve, poor fit] | Potency (HEK293) 29.1 µM [inhibitor, single point] | Potency (KB-3-1) 23.1 µM [inhibitor, single point]

C/C=C(\C)C(=O)OCC1OC(OC2OC(CO)C(O)C(O)C2O)C(O)C(O)C1O (configuration not stated)
inactive: Potency [4] | max response (HEK293) -3.96% | outcome (HaCat) | outcome (KB-3-1) | Potency (C33A)

CCS(=O)(=O)N(Cc1cccnc1)c1cccc(-c2ccc(C#N)cc2)c1
inconclusive: Potency (HEK293) 23.1 µM [inhibitor, single point] | Potency (HaCat) 29.1 µM [inhibitor, single point] | Potency (KB-3-1) 18.4 µM [inhibitor, single point] | Potency (OV90) 39.8 µM [cytotoxic, single point] | Potency (SKOV3) 2 µM [cytotoxic, single point] | Potency (Tov-21-G) 25.1 µM [cytotoxic, single point]
active: Potency [1] 23.1 µM

CC(C)CC1OC(=O)C2CCCN2C(=O)CCNC(=O)C(Cc2ccccc2)NC(=O)C(C(C)C)N(C)C(=O)C(C(C)C)N(C)C1=O (configuration not stated) (cyclo([ξLac(3-iPr)][NMeV][NMeV]F[βAla]P); configuration not given here)
inconclusive: Potency (HaCat) 4.85 µM [inhibitor, single point]
inactive: max response (HEK293) 4% | max response (KB-3-1) 3.73% | Potency (CASKI)

CCCCCCCOc1cc2c(cc1/C(C)=C/c1ccc(C(=O)O)cc1)C(C)(C)CCS2(=O)=O
inconclusive: Potency [1] 20.6 µM [inhibitor, single point] | Potency [4] 29 µM [inhibitor, single point] | Potency [3] 18.3 µM [inhibitor, single point] | Potency (HEK293) 18.4 µM [inhibitor, single point] | Potency (KB-3-1) 16.4 µM [inhibitor, single point]
inactive: outcome (HaCat)
active: Potency [2] 1.78 µM

Cc1nc2c(C(F)(F)F)cccc2nc1-c1ccc(-c2cccc(S(C)(=O)=O)c2)cc1
inconclusive: Potency (KB-3-1) 2.06 µM [inhibitor, full curve, poor fit]

CO[C@H]1C=CO[C@@]2(C)Oc3c(C)c(O)c4c(O)c(c(/C=N/N5CCN(C)CC5)c(O)c4c3C2=O)NC(=O)/C(C)=C\C=C[C@H](C)[C@H](O)[C@@H](C)[C@@H](O)[C@@H](C)[C@H](OC(C)=O)[C@@H]1C
inactive: max response (HaCat) -21.6% | Potency (Tov-21-G)
inconclusive: Potency [1] 9.2 µM [inhibitor, partial curve, poor fit] | Potency [4] 29.9 µM [inhibitor, single point] | Potency [3] 29.9 µM [inhibitor, single point] | Potency (HEK293) 33.5 µM [inhibitor, single point]

Cc1ccnn1-c1ccc(C(=O)N2CCN(S(=O)(=O)c3ccc(Cl)c(C(F)(F)F)c3)CC2)cc1
inconclusive: Potency [4] 6.49 µM [inhibitor, partial curve] | Potency [3] 5.78 µM [inhibitor, full curve] | Potency (HEK293) 25.9 µM [inhibitor, single point] | Potency (HaCat) 20.6 µM [inhibitor, partial curve, poor fit] | Potency (SKOV3) 39.8 µM [rising, single point]
inactive: max response (NIH3T3) -5.12%

CC(=O)O[C@@H]1CC2C(C)(C)C(=O)C=C[C@]2(C)C2CC[C@@]3(C)[C@H](c4ccoc4)OC(=O)[C@H]4O[C@]43[C@@]21C (some centres not stated)
inconclusive: Potency [2] 22.4 µM [inhibitor, partial curve] | Potency [4] 14.2 µM [inhibitor, single point] | Potency [3] 11.2 µM [inhibitor, single point] | Potency (HEK293) 15.9 µM [inhibitor, single point]
inactive: Potency [1] | outcome (HaCat) | max response (NIH3T3) -4.81%

CC[N+](CC)(CC)CCOc1ccc(/C=C/c2ccccc2)cc1
inactive: Potency [1]
active: Potency (HEK293) 4.73 µM | Potency (HaCat) 8.41 µM | Potency (C33A) 14.1 µM | Potency (CAOV3) 10 µM | Potency (JEG-3) 31.6 µM | Potency (OV90) 17.8 µM | Potency (SKOV3) 10 µM
inconclusive: Potency (CASKI) 3.55 µM [cytotoxic, full curve, poor fit] | Potency (Es-2) 31.6 µM [cytotoxic, single point] | Potency (HeLa) 14.1 µM [cytotoxic, partial curve, poor fit] | Potency (Hek293T) 14.1 µM [cytotoxic, partial curve] | Potency (Tov112D) 0.891 µM [cytotoxic, full curve, poor fit]

CC(C)=CCC[C@](C)(O[C@@H]1O[C@H](CO[C@@H]2OC[C@@H](O)[C@H](O)[C@H]2O)[C@@H](O)[C@H](O)[C@H]1O)[C@H]1CC[C@]2(C)[C@@H]1[C@H](O)C[C@@H]1[C@@]3(C)CC[C@H](O[C@@H]4O[C@H](CO)[C@@H](O)[C@H](O)[C@H]4O)C(C)(C)[C@@H]3CC[C@]12C
inconclusive: Potency [2] 11.2 µM [inhibitor, single point] | Potency (HEK293) 8.93 µM [inhibitor, single point] | Potency (HaCat) 1.26 µM [inhibitor, partial curve, poor fit] | Potency (NIH3T3) 7.96 µM [inhibitor, single point]

NS(=O)(=O)c1cc2c(cc1Cl)CN(C1CCCCC1)C2=O
inconclusive: Potency [3] 29.9 µM [inhibitor, partial curve, poor fit] | Potency (HaCat) 5.96 µM [inhibitor, single point]
inactive: outcome (HEK293) | Potency (HeLa) | Potency (JEG-3)

CC(C)(C)C1CCN(C(=O)n2ncc(C(O)(c3ccccc3)c3ccccc3)n2)CC1
inconclusive: Potency [2] 31.6 µM [inhibitor, partial curve] | Potency (HEK293) 20.6 µM [inhibitor, single point] | Potency (NIH3T3) 18.4 µM [inhibitor, single point]
inactive: max response (HaCat) -7.63%

From PubChem BioAssay (NCATS)
